Our source for the MIC values is the supplement of paper PMC11022549.

Experiment in all cases: CLSI broth microdilution in RPMI 1640, up to 16 µg/mL, 48 h at 37 °C; full growth inhibition.
Compound in assay [1]: CC(C)(C)C(O)(CCc1ccc(Cl)cc1)Cn1cncn1 [tebuconazole]
Compound in assay [2]: C[C@@H](c1ncncc1F)[C@](O)(Cn1cncn1)c1ccc(F)cc1F [voriconazole]
Compound in assay [3]: CC[C@@H]([C@H](C)O)n1ncn(-c2ccc(N3CCN(c4ccc(OC[C@@H]5CO[C@@](Cn6cncn6)(c6ccc(F)cc6F)C5)cc4)CC3)cc2)c1=O [posaconazole]
Compound in assay [4]: CCC(C)n1ncn(-c2ccc(N3CCN(c4ccc(OCC5COC(Cn6cncn6)(c6ccc(Cl)cc6Cl)O5)cc4)CC3)cc2)c1=O [itraconazole]

MIC (lowest dose with no growth) of environmental A. fumigatus isolates, CLSI broth microdilution in RPMI 1640, up to 16 µg/mL, 48 h at 37 °C, mean of two or three runs; higher = less susceptible. No active / inactive call per row; the paper counts tebuconazole above 3, itraconazole and voriconazole above 2 and posaconazole above 0.25 µg/mL as resistant. The source writes 17 for growth at the top dose; shown as '>' 16, and '>=' 16 where runs were 16 and above. cyp51A changes are as printed. Isolates are numbered anew. Some results are limits rather than exact numbers.

“Aspergillus fumigatus isolate 93 (cyp51A: T248N/E255D)”: the MIC was determined as 4 µg/mL in assay [1], 1 µg/mL in assay [2], 0.5 µg/mL in assay [3] and 1.5 µg/mL in assay [4].

As to “Aspergillus fumigatus isolate 89 (cyp51A: T248N/E255D)”, the minimal inhibitory concentration (MIC) turned out to be 1.5 µg/mL in assay [1], 0.5 µg/mL in assay [2], 0.5 µg/mL in assay [3] and 1 µg/mL in assay [4].

For the test system “Aspergillus fumigatus isolate 25 (cyp51A: TR34/Y46F/L98H/V172M/T248N/E255D/K427E)”, the MIC is ≥ 16 µg/mL in assay [1], 4 µg/mL in assay [2], 1 µg/mL in assay [3] and > 16 µg/mL in assay [4].

Turning to “Aspergillus fumigatus isolate 72 (cyp51A: TR34/Y46F/L98H/V172M/T248N/E255D/K427E)”, the MIC in assay [1] is > 16 µg/mL; in assay [2], 4 µg/mL; in assay [3] it was 1 µg/mL; in assay [4], > 16 µg/mL.

“Aspergillus fumigatus isolate 17 (cyp51A: WT)”: the minimum inhibitory concentration (MIC) in assay [1] came out at 2 µg/mL; in assay [2] it was 0.375 µg/mL; in assay [3], 0.5 µg/mL; in assay [4], 2 µg/mL.

Turning to “Aspergillus fumigatus isolate 49 (cyp51A: Y46F/V172M/T248N/E255D/K427E)”, the MIC turned out to be 6 µg/mL in assay [1], 1 µg/mL in assay [2], 0.5 µg/mL in assay [3] and 3 µg/mL in assay [4].

For “Aspergillus fumigatus isolate 94 (cyp51A: Y46F/V172M/T248N/E255D/K427E)”, the MIC in assay [1] is 4 µg/mL; in assay [2] it was 1 µg/mL; in assay [3], 0.5 µg/mL; in assay [4], 2 µg/mL.

In the case of “Aspergillus fumigatus isolate 38 (cyp51A: TR34/Y46F/L98H/V172M/T248N/E255D/K427E)”, the MIC in assay [1] was ≥ 16 µg/mL; in assay [2], 3 µg/mL; in assay [3], 1 µg/mL; in assay [4] it was ≥ 16 µg/mL.

For the test system “Aspergillus fumigatus isolate 70 (cyp51A: TR34/Y46F/L98H/V172M/T248N/E255D/K427E)”, the minimal inhibitory concentration (MIC) in assay [1] was ≥ 16 µg/mL; in assay [2], 4 µg/mL; in assay [3] it was 1 µg/mL; in assay [4], ≥ 16 µg/mL.

On to “Aspergillus fumigatus isolate 68 (cyp51A: T248N/E255D)”, for which the MIC in assay [1] is 2 µg/mL; in assay [2], 0.5 µg/mL; in assay [3] it was 0.5 µg/mL; in assay [4], 2 µg/mL.

For the test system “Aspergillus fumigatus isolate 24 (cyp51A: WT)”, the MIC in assay [1] was determined as 2 µg/mL; in assay [2], 0.5 µg/mL; in assay [3], 0.5 µg/mL; in assay [4], 2 µg/mL.

With “Aspergillus fumigatus isolate 61 (cyp51A: Y46F/V172M/I242V/T248N/E255D/K427E)”, the minimal inhibitory concentration (MIC) was 4 µg/mL in assay [1], 1 µg/mL in assay [2], 1 µg/mL in assay [3] and 2 µg/mL in assay [4].

Regarding “Aspergillus fumigatus isolate 82 (cyp51A: Y46F/V172M/T248N/E255D/K427E)”, the MIC in assay [1] was found to be 3 µg/mL; in assay [2], 0.5 µg/mL; in assay [3], 0.5 µg/mL; in assay [4] it was 2 µg/mL.

“Aspergillus fumigatus isolate 44 (cyp51A: T248N/E255D)”: the MIC in assay [1] was determined as 3 µg/mL; in assay [2] it was 0.75 µg/mL; in assay [3], 0.5 µg/mL; in assay [4], 2 µg/mL.

As to “Aspergillus fumigatus isolate 28 (cyp51A: Y46F/V172M/T248N/E255D/K427E)”, the MIC was 4 µg/mL in assay [1], 0.75 µg/mL in assay [2], 0.5 µg/mL in assay [3] and 2 µg/mL in assay [4].

For “Aspergillus fumigatus isolate 79 (cyp51A: TR46/Y46F/Y121F/V172M/T248N/E255D/T289A/K427E)”, the MIC in assay [1] is > 16 µg/mL; in assay [2], > 16 µg/mL; in assay [3], 1 µg/mL; in assay [4], 2 µg/mL.

On to “Aspergillus fumigatus isolate 87 (cyp51A: T248N/E255D/K427E)”, for which the minimum inhibitory concentration (MIC) is 2 µg/mL in assay [1], 0.5 µg/mL in assay [2], 0.5 µg/mL in assay [3] and 1 µg/mL in assay [4].

“Aspergillus fumigatus isolate 22 (cyp51A: Y46F/V172M/T248N/E255D/K427E)”: the minimal inhibitory concentration (MIC) worked out at 2 µg/mL in assay [1], 0.5 µg/mL in assay [2], 0.5 µg/mL in assay [3] and 1 µg/mL in assay [4].

For “Aspergillus fumigatus isolate 88 (cyp51A: T248N/E255D)”, the MIC in assay [1] worked out at 3 µg/mL; in assay [2], 0.5 µg/mL; in assay [3] it was 0.5 µg/mL; in assay [4] it was 1.5 µg/mL.

In the case of “Aspergillus fumigatus isolate 15 (cyp51A: Y46F/V172M/I242V/T248N/E255D/K427E)”, the MIC in assay [1] turned out to be 4 µg/mL; in assay [2], 1 µg/mL; in assay [3], 0.75 µg/mL; in assay [4], 2 µg/mL.

On to “Aspergillus fumigatus isolate 58 (cyp51A: WT)”, for which the MIC in assay [1] came out at 8 µg/mL; in assay [2], 1 µg/mL; in assay [3], 1 µg/mL; in assay [4], 2 µg/mL.

As for “Aspergillus fumigatus isolate 47 (cyp51A: Y46F/V172M/T248N/E255D/K427E)”, the MIC in assay [1] stood at 8 µg/mL; in assay [2] it was 2 µg/mL; in assay [3], 1 µg/mL; in assay [4], 3 µg/mL.

Take “Aspergillus fumigatus isolate 84 (cyp51A: WT)”: the minimal inhibitory concentration (MIC) in assay [1] was found to be 4 µg/mL; in assay [2], 1 µg/mL; in assay [3] it was 0.5 µg/mL; in assay [4], 2 µg/mL.

For the test system “Aspergillus fumigatus isolate 6 (cyp51A: WT)”, the MIC in assay [1] was found to be 2 µg/mL; in assay [2], 0.5 µg/mL; in assay [3] it was 0.5 µg/mL; in assay [4], 1.5 µg/mL.

“Aspergillus fumigatus isolate 35 (cyp51A: Y46F/V172M/I242V/T248N/E255D/K427E)”: the MIC in assay [1] was 4 µg/mL; in assay [2], 1 µg/mL; in assay [3] it was 0.5 µg/mL; in assay [4], 2 µg/mL.

On to “Aspergillus fumigatus isolate 37 (cyp51A: Y46F/V172M/T248N/E255D/K427E/L464I)”, for which the MIC in assay [1] was 4 µg/mL; in assay [2] it was 1 µg/mL; in assay [3], 0.75 µg/mL; in assay [4], 1.5 µg/mL.

Regarding “Aspergillus fumigatus isolate 95 (cyp51A: T248N/E255D)”, the MIC in assay [1] amounted to 2 µg/mL; in assay [2] it was 0.5 µg/mL; in assay [3] it was 0.5 µg/mL; in assay [4], 1 µg/mL.
